Laboratory results published in PubChem BioAssay AID463173 (ICCB-Longwood Screening Facility, Harvard Medical School, 2010).
In all, about 52,000 compounds went through this assay and about 4,300 (8.3%) were called active. No stated cut-off is given here; in the data, active means survival mostly below about 52% (no sharp cut-off); inactive means mostly above about 56%. This is one part of the list.

What follows are molecules tested on DeltatarO mutant (assay: growth inhibition of S. aureus wild type versus tarO mutant, primary screen, teichoic acid synthesis inhibitors, RN4220, OD600 (AID 463173)). Conditions: OD600, 18 h, active compounds read low, screened at 18.75 µg/mL (by protocol).

| SMILES | survival |
| --- | --- |
| CCOc1ccc(NC(=O)c2oc3ccccc3c2NC(=O)c2cc(C)cc(C)c2)cc1 | inactive: 82% |
| COc1ccc(CC(=O)NCc2ccc3c(c2)CCN3C(=O)c2ccc(Cl)cc2)cc1 | inactive: 62% |
| CN1C(=O)/C(=C/C=C2/CCCN2C)N(C)C1=S | inactive: 91% |
| CCc1ccc2oc(-c3cc(NC(=O)c4cccnc4)cc(C)c3O)nc2c1 | inactive: 65% |
| CCOc1ccc(CCNC(=O)CCSCc2ccc(Cl)cc2)cc1OCC | inactive: 92% |
| CCC(=O)N1CCc2cc(Br)cc(S(=O)(=O)N3CCCC(C(=O)Nc4cccc(F)c4)C3)c21 (centres undefined) | inactive: 76% |
| Cc1cccc(Cc2c(C)nc3nc(SCC(=O)NCc4ccccc4)nn3c2C)c1 | active: 40% |
| COc1ccccc1N1CCN(c2ncnc3c2cnn3-c2cccc(Cl)c2)CC1 | active: -2% |
| CCN(Cc1ccccc1)S(=O)(=O)c1cc(C(=O)Nc2cc(Cl)cc(Cl)c2)ccc1F | inactive: 78% |
| COc1ccc(-c2[nH]c(-c3cccc(OC)c3)nc2SCC(=O)NC2CCCC2)cc1 | inactive: 119% |
| O=S(=O)(NCC(c1cccs1)S(=O)(=O)c1ccccc1)c1ccc(F)c(C(F)(F)F)c1 (centres undefined) | inactive: 92% |
| COc1ccc(-c2cn3nc(N4CCCC(C(=O)Nc5cc(C)cc(C)c5)C4)sc3n2)cc1 (centres undefined) | inactive: 75% |
| Cc1cc(C)c(S(=O)(=O)Nc2ccc(-c3ccc(N4CCCCCC4)nn3)cc2)c(C)c1 | inactive: 84% |
| CCCc1cc(C(=O)Nc2c(C)nn(Cc3c(Cl)cccc3Cl)c2C)no1 | inactive: 60% |
| Cn1cnnc1SCC(=O)Nc1ccc(C#N)cc1 | inactive: 56% |
| COC(=O)c1ccc(OCC2c3cc(OC)c(OC)cc3CCN2C(=O)Cc2ccccc2)cc1 (centres undefined) | inactive: 93% |
| CN(CC(=O)NCc1ccccc1)S(=O)(=O)c1ccc2[nH]c3c(c2c1)CCCC3 | inactive: 96% |
| CC(=O)Nc1ccc2nc(SCCOc3cc(C)cc(C)c3)sc2c1 | inactive: 70% |
| COc1ccc(CCN2C(=O)NC(NS(=O)(=O)c3ccc(NC(C)=O)cc3)(C(F)(F)F)C2=O)cc1OC (centres undefined) | inactive: 80% |
| COc1cc(NC(=O)c2c(C)oc3c2C2=NCCN2C=N3)cc(OC)c1OC | inactive: 81% |
| CC(=O)N1c2ccc(S(=O)(=O)NCC3CCC(C(=O)Nc4cc(C)ccc4C)CC3)cc2CC1C (centres undefined) | inactive: 102% |
| COc1ccc(OCC(=O)NCc2ccc3c(c2)CCN3C(=O)c2ccc(F)cc2)cc1 | inactive: 119% |
| CCN(CC)S(=O)(=O)c1ccc(C(=O)N2CC(=O)Nc3ccc(F)cc3C2c2ccccc2)cc1 (centres undefined) | inactive: 74% |
| O=C(C1CCN(S(=O)(=O)c2ccc(Br)s2)CC1)N1CCN(c2ccccc2)CC1 | inactive: 86% |
